Assay results: PubChem BioAssay (NCI)
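Dose response: 5 concentrations. Exposure: 48 h. Format: 96-well plates. Endpoint: linear interpolation; highest concentration if not reached. Abbreviation: GI50, concentration required for 50% inhibition of growth. TGI: concentration producing complete growth inhibition.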 Peptide text beside a SMILES is read from it.

System: NCI-H322M lung
Test: NCI anticancer screen, dose series, 48 h

SMILES | TGI | GI50
C=C(C)[C@@H]1CCC2=C[C@H](OC2=O)[C@@]2(C)C[C@@H]2C(=O)/C=C(/C)C(=O)[C@H]1OC(C)=O | > 100 µM | –
CN(C)C1=NC2=S(SC(Nc3ccccc3)=N2)S1 (stereo unspecified) | > 100 µM | –
COC(=O)C1(Cc2cccc(C)c2)Cc2c(C)cccc2C1=O (stereo unspecified) | > 100 µM | –
Cc1sc(NC2=NC(=O)/C(=C\c3ccccc3)S2)nc1-c1nc(NC2=NC(=O)/C(=C\c3ccccc3)S2)sc1C | 26.5 µM | 8.46 µM
CCC1CC(C)=CCN1S(=O)(=O)c1ccc(C)cc1 (stereo unspecified) | > 100 µM | –
CCOC1(OCC)N=C(N)C2(C#N)C3(C(=O)N(C(C)C)N=C3C)C12C#N (stereo unspecified) | > 100 µM | –
CNCCCNC1(c2cc3ccccc3s2)CCCCC1 | 20.5 µM | –
COc1ccc(-c2nn(-c3cccc(NC(=O)c4cccc(C(F)(F)F)c4)c3)cc2-c2ccncc2)cc1Cl | > 100 µM | 6.64 µM
CCCc1nc(NC#N)nc(C(=O)NC23CC4CC(CC(C4)C2)C3)c1C | > 100 µM | –
Cc1nn(-c2ccccc2)c2nc3c(nc12)C1=NCCN1C(c1ccc(Cl)cc1)N3 (stereo unspecified) | 20.4 µM | 7.55 µM
Cc1cc(O)c(C=NC(=S)c2ccccc2)c(=O)o1 | > 100 µM | –
O=C1NC(c2c(Cl)cccc2Cl)Nc2ccccc21 (stereo unspecified) | > 100 µM | –
Cc1ccc(C(=O)C#Cc2c[nH]c(=O)[nH]c2=O)cc1 | 28.9 µM | –
CS/C(=N\S(=O)(=O)c1cc(C)c(Cl)cc1Cl)NNc1cnc2ccccc2n1 | > 100 µM | –
C/C(=C\CCc1ccsc1)CC/C=C(\C)CCCN1CCC(CO)CC1 | 18.3 µM | 5.05 µM
CCOC(=O)c1c[nH]cc1-c1cn(S(=O)(=O)c2ccccc2)cc1C | > 100 µM | –
CCC1c2[nH]c3ccccc3c2C[C@H]2C(=O)NC(CCCCNC(=O)OC(C)(C)C)C(=O)N12 (stereo partly specified) | > 100 µM | –
CC(=O)OC1CC2C(C)(C)C(=O)C=C[C@]2(C)C2CCC3(C)C(c4ccoc4)[C@@H](O)[C@H]4O[C@]43[C@]12C (stereo partly specified) | 61.8 µM | –
O=C(NCCNc1nccc(-c2c(-c3ccc(F)cc3)nc3sccn23)n1)c1ccccc1 | 41.4 µM | 10.7 µM
CCC(CCN)(CCN)[N+](=O)[O-] | > 100 µM | –
Cc1cn([C@H]2C[C@@H]3[C@@H](COC(CCl)N3O)O2)c(=O)[nH]c1=O (stereo partly specified) | > 100 µM | –
COC(=O)C(Cc1c(C2Nc3ccccc3C2CC(NC(C)=O)C(=O)OC)[nH]c2ccccc12)NC(C)=O (stereo unspecified) | > 100 µM | –
COc1ccc(C(=O)CC(=O)C(=O)Nc2ccc(C)c(C)c2)cc1 | > 100 µM | –

SMILES | TGI | GI50
CC[C@H](C)[C@H](NC(=O)[C@H](CCCCN)NC(=O)[C@H](CCCCN)NC(=O)[C@@H](NC(=O)[C@@H](NC(=O)[C@@H](N)Cc1cnc[nH]1)[C@@H](C)CC)[C@@H](C)CC)C(=O)N[C@@H](CCCNC(=N)N)C(=O)N[C@H](C(=O)N[C@@H](Cc1c[nH]c2ccccc12)C(=O)N[C@@H](Cc1ccc(O)cc1)C(=O)N[C@@H](CCCNC(=N)N)C(=O)N[C@@H](CCCCN)C(=O)N[C@@H](C)C(=O)N[C@@H](Cc1c[nH]c2ccccc12)C(=O)N[C@@H](Cc1cnc[nH]1)C(=O)N[C@H](C(=O)N[C@@H](CC(C)C)C(=O)NCC(=O)N[C@@H](CCCCN)C(=O)N[C@H](C(N)=O)C(C)C)C(C)C)[C@@H](C)O (H-HIIKKIRTWYRKAWHVLGKV-NH2) | 18.4 µM | 5 µM
O=C1C2=Cc3ccccc3OC2(O)Oc2ccc(O)cc21 (stereo unspecified) | > 100 µM | –
CCC12CC(c3ccccc3)C(C(=O)N1)C(=O)N2 (stereo unspecified) | > 100 µM | –
NCCCNCCSSC/C=C\CSSCCNCCCN | > 100 µM | –
Cc1c(-c2nnc(-c3ccc(F)cc3)o2)nnn1-c1ccnc2c(C(F)(F)F)cccc12 | > 100 µM | 67.1 µM
CCCCCCCCCCCCCCCCCC(=O)OCC(COC1OC(CS(=O)(=O)O)C(O)C(O)C1O)OC(=O)CCCCCCCCCCCCCCCCC (stereo unspecified) | > 100 µM | –
COC(=O)CCc1ccc2c(c1)CC1(Cc3ccccc3C1)C2 | > 100 µM | –
CCOC(=O)C(=O)Nc1c(C)cccc1C(C)C | > 100 µM | –
COc1cc(/C=C2\C(=O)N(c3ccccc3)c3ccccc32)cc(OC)c1OC | 31.7 µM | 15.3 µM
COC1OC(COS(=O)(=O)c2ccc(C)cc2)C(O)C(OS(=O)(=O)c2ccc(C)cc2)C1OS(=O)(=O)c1ccc(C)cc1 (stereo unspecified) | > 100 µM | –
COC(=O)Cc1c(/C=C/C(C)(C)n2cnc(CCN3C(=O)CCC3=O)c2)[nH]c2ccccc12 | > 100 µM | –
Cc1ccc2ccc3ccc(C)nc3c2n1 | > 100 µM | –
N=c1n(Cc2ccccc2)c(N)cc(=O)n1Cc1ccccc1 | 11.2 µM | 3.42 µM
C/C(=N/c1[nH]c(=O)cc2c1C(=O)CC2)N(C)C | > 200 µM | –
Cc1c2cc[n+](C)cc2c(C)c2c1[nH]c1ccc(Cl)cc12 | 17.7 µM | –
COc1ccc2cc(Cn3cc[n+](Cc4ccc5ccccc5c4)c3)ccc2c1 | 19.7 µM | 5.75 µM
O=C1N=NC(=O)N1c1cc(C(F)(F)F)cc(C(F)(F)F)c1 | 27.4 µM | –
CC1OC(OC2C(CO)OC(O[C@H]3CC[C@@]4(C)C(=CC[C@H]5[C@@H]6C[C@@H]7O[C@](O)(CC[C@H](CO)COC8OC(CO)C(O)C(O)C8O)[C@@H](C)[C@@H]7[C@@]6(C)CC[C@@H]54)C3)C(OC3OC(C)C(O)C(O)C3O)C2O)C(O)C(O)C1O (stereo partly specified) | > 100 µM | –
COc1ccc2oc(=O)c(-c3nc4ccccc4o3)cc2c1 | > 100 µM | –
N#C/C(C(=S)Nc1ccccc1)=C(/N)N1CCCC1 | > 100 µM | –
CC1=CC(=O)c2c(C=O)c(O)c(O)c(C(C)C)c2C1=O | > 100 µM | –
COC(=O)CS(=O)c1ccccc1 (stereo unspecified) | > 100 µM | –
CO/N=C(\C(=O)Nc1cncs1)c1csc(N)n1 | > 10 µM | –
